Measurements as given in PubChem BioAssay (NCI).
“And” between values parts separate entries of the source, which are not always exact repeats. Equal entries are not always repeated.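 Cultured in 96-well plates, cells were exposed to test compound for 48 hours across five concentrations. GI50 marks 50% less growth. The concentration for full growth arrest is given as TGI.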

System: NCI-H322M lung
Test: growth of human tumour cells (NCI), 48 h

SMILES	TGI	GI50
CC(=O)N(C(C)=O)C1=C2c3ccccc3N(S(=O)(=O)c3ccccc3)C2n2c(=O)n(-c3ccccc3)c(=O)n2C1 (configuration not stated)	> 100 µM	–
COc1cc(NS(C)(=O)=O)ccc1N1Cc2cnc3ccc4[nH]c(C)cc1c4c23	> 100 µM	–
Cc1nnc(N/N=C(/C(=O)C(C#N)c2ccccc2)C(C#N)c2ccccc2)n1N (configuration not stated)	28.7 µM	–
C=CC[C@]12C[C@@H](C(=O)OC)N(C(=O)OC)[C@H]1N(S(=O)(=O)c1ccccc1)c1ccccc12	> 100 µM	–
COc1ccc(Nc2nc3ccccc3nc2-c2cccs2)cc1	> 100 µM	–
C1=CC2=CC=CC3c4nc5ccc6ccccc6c5nc4C(=C1)C23 (configuration not stated)	> 100 µM	–
Cc1ccc(S(=O)(=O)N/N=C(\c2nc3ccc([N+](=O)[O-])cc3[nH]c2=O)C(O)c2ccccc2Cl)cc1 (configuration not stated)	> 100 µM	–
Cc1cc2[nH]c3[nH]c(=O)[nH]c(=O)c3c2cc1C	> 100 µM	–
CC(=O)NNc1nc(C)c(C(=O)NNC(=O)C(=O)Nc2nc3ccc([N+](=O)[O-])cc3s2)s1	> 100 µM	–
CCOC(=O)c1ccc(N[C@@H]2c3cc4c(cc3C(C3=CC(=O)C(=O)C(OC)=C3)[C@H]3C(=O)OCC32)OCO4)cc1 (some centres not stated)	> 90.6 µM	–
O=S(=O)(CCOCc1ccc(-c2ccc3ncnc(Nc4ccc(OCc5cccc(F)c5)c(Cl)c4)c3c2)o1)c1ccccc1	> 25 µM	2.56 µM
CCCNC(=O)CCC(C)[C@H]1CCC2C3C(C[C@H](OC(C)=O)[C@@]21C)[C@@]1(C)CCC2(C[C@H]1C[C@H]3OC(C)=O)OOC1(CCC(C)CC1)OO2 (some centres not stated)	> 100 µM	–
CCCCCCCCCCCCCC(=O)OCC1OC(=O)CC1O (configuration not stated)	> 100 µM	–
CC(=O)[O-].CC(=O)[O-].CC(=O)[O-].CC(=O)[O-].[Mo+2].[Mo+2]	> 100 µM	> 100 µM
O=c1oc(-c2ccc(O)c(O)c2)cc2cccc(O)c12	43.2 µM	–
COc1cc([N+](=O)[O-])c(OC)cc1-c1nc2sc(Cl)cn2c1/C=N/Nc1ccccn1	> 50 µM	12.6 µM
Cc1c(C(=O)CSc2nc3ccccc3c(=O)n2-c2ccccc2)c(=O)n(-c2ccccc2)n1C	> 100 µM	–
O=S(=O)(O)c1cc2ccc1/C=C\c1ccc(cc1S(=O)(=O)O)N=Nc1ccc(c(S(=O)(=O)O)c1)/C=C\c1ccc(cc1S(=O)(=O)O)N=N2	> 100 µM	–
COc1cc(C2SCC(=O)N2c2ccc(NC(=O)c3ccc(N4C(=O)CSC4c4cc(OC)c(OC)c(OC)c4)cc3)cc2)cc(OC)c1OC (configuration not stated)	> 100 µM	–
CCCCCCCCCCCCCCCCCCNC(=O)[C@H]1CSC(c2cccs2)N1 (some centres not stated)	> 50 µM	2.14 µM
C(=N\NC1=NCCCN1)/c1ccc2ccccc2c1	29.1 µM	–

SMILES	TGI	GI50
CO[C@]12CC(=O)C3(C(C[C@H]4CC5CC=C6C[C@@H](OC(C)=O)CC[C@]6(OC(C)=O)C5C[C@@]43C)C1)C1C[C@H]3[C@@H]4CC=C5C[C@@H](OC(C)=O)CC[C@]5(OC(C)=O)[C@H]4CC[C@]3(C)C12 (some centres not stated)	> 100 µM	–
CC1(Cc2ccccc2)NC(=S)NC1=O (configuration not stated)	> 100 µM	–
O=C1C=CC(=O)N1Nc1ccc([N+](=O)[O-])cc1[N+](=O)[O-]	> 100 µM	–
CC(=O)OCC1OC(n2cc([N+](=O)[O-])c(=O)[nH]c2=O)C(OC(C)=O)C(OC(C)=O)C1OC(C)=O (configuration not stated)	> 100 µM	–
NC(=O)/C=C/C(=O)O	> 5000 µM	–
CCCCCCCCCCCC[n+]1ccccc1 (tested in a mixture with another compound)	11 µM	2.47 µM
Cc1cc(Nc2nc(SCc3ccc(C(=O)Nc4ccc(F)cc4N)cc3)nn3cccc23)n[nH]1	> 100 µM	1.01 µM
O=C/C(=C(/Cl)c1ccc(O)cc1)c1ccccc1	97.5 µM	–
COc1ccc(C2(CC(C)O)SCCCS2)cc1 (configuration not stated)	> 100 µM	–
COC(=O)[C@]12CC[C@H]3CN(C(=O)OCc4ccccc4)[C@H]([C@H]31)[C@H](c1ccco1)N2S(=O)(=O)c1ccc(C)cc1	> 100 µM	–
CC(=O)N[C@H](C(=O)N[C@@H](CCCNC(=N)N)C(=O)N[C@@H](CCCCN)C(=O)N[C@@H](CCCNC(=N)N)C(=O)N[C@]1(C)CCCCCC/C=C\CCC[C@@](C)(C(=O)N[C@@H](CCCNC(=N)N)C(=O)N[C@@H](CCC(=O)O)C(=O)N[C@@H](CC(C)C)C(=O)N[C@H](C(=O)N[C@@H](CCC(=O)O)C(N)=O)C(C)C)NC(=O)[C@H](CCC(N)=O)NC(=O)[C@H](CC(C)C)NC(=O)[C@H](CC(C)C)NC(=O)[C@H](CCCNC(=N)N)NC(=O)[C@H](CCCNC(=N)N)NC(=O)[C@H](CC(C)C)NC1=O)C(C)C	26.5 µM	3.58 µM
CCOC1Oc2ccccc2-c2oc(=O)c(Sc3ccc(C)cc3)cc21 (configuration not stated)	> 100 µM	46.4 µM
C=C1CC2(OC1=O)C(=O)N(CCCN1C(=O)C3(CC(=C)C(=O)O3)c3ccccc31)c1ccccc12 (configuration not stated)	23.2 µM	11.2 µM
CC(C)/C(Cl)=N\OC(=O)Nc1ccc(C#N)cc1	31.6 µM	–
Cc1ccc2nc3c(Cl)c(C)c(=O)cc-3sc2c1	> 100 µM	> 100 µM
Clc1ccc(-c2nn3c(-c4ccncc4)nnc3s2)cc1	> 100 µM	–
O=C(NC(Cc1ccc(I)cc1)C(=O)O)c1ccc(I)cc1 (configuration not stated)	> 100 µM	–
O=c1ccc2cc3ccc4cccc5ccc(c2o1)c3c45	> 100 µM	–
c1ccc2c(c1)NC(C1OC3CCCN3C1C1Nc3ccccc3S1)S2 (configuration not stated)	> 100 µM	–
CCN(CC)CCNC(=O)c1c(C)[nH]c(/C=C2\C(=O)Nc3ccc(F)cc32)c1C	> 10 µM and 9.3 µM and 20.5 µM	0.877 µM and 2.54 µM and 5.46 µM
O=c1cc(N=P(c2ccccc2)(c2ccccc2)c2ccccc2)n(-c2ccccc2)c(=O)n1-c1ccccc1	92.2 µM	–

SMILES	TGI	GI50
CC1(C)[C@@H]2CC[C@@]1(C)[C@@H]1O[C@@H](O[C@@H](CN)c3cc(Cl)c(OCc4ccccc4)c(OCc4ccccc4)c3)C[C@H]21	0.312 µM	–
CC12CC(=O)C3C(C(=O)C1)C32C (configuration not stated)	> 100 µM	–
CC(O)C1CC1(CO)CNc1cc(Cl)nc(N)n1 (configuration not stated)	> 100 µM	–
CN(C)Cc1c[nH]c2c(NCCN)c3c(c(NCCN)c12)C(=O)c1ccccc1C3=O	4.99 µM	1.19 µM
O=C1CN2C(c3ccccc3)=NN(c3ccc([N+](=O)[O-])cc3)C2(c2ccccc2)c2cc(Cl)ccc2N1CC1CC1 (configuration not stated)	> 100 µM	–
CN(C)c1ccc(C=C2N=C(c3ccccc3)N(c3cc(C(=O)c4ccccc4)ccc3N3C(=O)/C(=C/c4ccc(N(C)C)cc4)N=C3c3ccccc3)C2=O)cc1	> 100 µM	–
N#CCCN(CCC#N)c1ccc(/C=C2\N=C(c3ccccc3)N(c3ccc(Cl)cc3)C2=O)cc1	> 100 µM	–
CCOC(=N)n1c(=O)n(C2=NCCN2)c2ccccc21	> 100 µM	–
Cn1c([N+](=O)[O-])cnc1/C=C1\Oc2cc(Cl)ccc2C1=O	38.6 µM	7.56 µM
C=CCOC(=O)CC[N+]1=CCC(c2ccccc2)(c2ccccc2)O1	> 100 µM	–
COc1ccc(C(OCC2OC(n3cc(C)c(=O)[nH]c3=O)CC2n2cc(Cn3cc(F)c(=O)[nH]c3=O)nn2)(c2ccccc2)c2ccccc2)cc1 (configuration not stated)	19.8 µM	–
COC1OC(C)C(OCc2ccccc2)C(OS(=O)(=O)c2ccc(C)cc2)C1OS(=O)(=O)c1ccc(C)cc1 (configuration not stated)	> 100 µM	–
O=C(c1cc2ccccc2cc1O)N1CCCCC1	> 100 µM	–
Cc1c2c(n(CCc3ccc(Cl)cc3)c1C)NN=C(C#N)S2(=O)=O	> 100 µM	–
Cc1nc(Nc2n[nH]c3c2CN(C(=O)N[C@H](CN(C)C)c2ccccc2)C3(C)C)c2sccc2n1	> 5.88 µM and 11.8 µM	0.148 µM and 0.248 µM
CN(C)CCCN1C(=S)N(CCCN(C)C)c2c3cc(O)ccc3nc3c([N+](=O)[O-])ccc1c23	24.4 µM	–
NC(=O)c1cccc(Nc2nccc(Nc3cccc(F)c3)n2)c1	> 25 µM	8.38 µM
Cc1cc2c(Br)cc(Br)c(O)c2nc1C(=O)c1ccccc1	50.1 µM	–
CCOC(=O)/C=C(\C)c1ccc(C)cc1C	> 100 µM	–
COC(=O)c1c2c(cc3c1CC1(C3)Cc3cc4c(c(C(=O)OC)c3C1)CCCC4)CCCC2	> 100 µM	–
CN(C)Cc1cc(C(=O)/C=C/c2ccc(O)cc2)cc(CN(C)C)c1O	> 100 µM	–

SMILES	TGI	GI50
CCOC(=O)/C(=C/c1cccc(OC)c1)N(CC)CC	> 100 µM	–
CN(C)C(=S)S	> 100 µM	–
COc1c(Br)cc(Br)c(OC)c1-c1[nH]c(Br)c(Br)c1Br	21.8 µM	–
NC(=O)C1(N2CCCCC2)CCN(CCCC(=O)c2ccc(F)cc2)CC1	> 100 µM	5.54 µM
CCN(CCO)CC1COc2ccccc2O1 (configuration not stated)	> 100 µM	–
O=c1c2cc3c(cc2[nH]c2ncccc12)OCO3	> 10 µM	–
N#C/C(=C\c1cc(Br)c(O)c(Br)c1)c1cccnc1	> 100 µM	–
CC1(C)CC[C@H](C2=CC(=O)c3c(O)ccc(O)c3C2=O)O1	18.2 µM and 9.4 µM and 4.68 µM	8.53 µM and 3.03 µM and 2.27 µM
COc1ccc(CC(O)CN2CCOCC2)cc1 (configuration not stated)	> 100 µM	–
O=[N+]([O-])/C(C(Cl)=C(Cl)Cl)=C(\Nc1cccc2cccnc12)SCc1ccccc1	56.4 µM	–
O=C(N=Nc1cc(Cl)ccc1Cl)NNc1cc(Cl)ccc1Cl	96.1 µM	–
O=S1(=O)NCCCN1CCNc1nccc(-c2c(-c3cccc(O)c3)nc3sccn23)n1	> 100 µM	18.1 µM
OC(c1ccc(Br)cc1)(c1cccs1)C1CC1 (configuration not stated)	> 100 µM	–
CCCCCCCCCCN=C(c1ccc(N(C)C)cc1)c1ccc(N(C)C)cc1	> 100 µM	3.52 µM
CCC(=C(c1ccc(OCCCN(C)C)cc1)c1ccc(OCCCN(C)C)cc1)c1ccc(Cl)cc1	2.95 µM	0.967 µM
COc1ccc(C#CC(=O)O)c(OC)c1	> 100 µM	–
c1ccc(Cn2cnc3ccc(-c4nc(-c5ccc6c(c5)ncn6C5CCCCC5)cn5ccnc45)cc32)cc1	> 100 µM	3.05 µM
NC(N)=NS(=O)(=O)c1ccc(NC(=O)c2cccc3c(Nc4ccc(S(N)(=O)=O)cc4)c4ccccc4nc23)cc1	> 100 µM	–
C[C@H](Cn1ncnn1)Nc1ncc2cc(Oc3ccc(F)cc3F)c(=O)n(C)c2n1	> 25 µM	> 25 µM
CC(=O)[CH-]C(C)=O.[CH2-]C.[CH2-]C.[Tl+3]	> 100 µM	> 100 µM
CC1(c2ccccc2)CC(c2ccccc2)=NO1 (configuration not stated)	> 100 µM	–
